Data on 37 compounds can be found in the supplement of paper PMC10037445.

Assay [1] deals with RAW-Dual. Briefly: IRF Lucia reporter activity, fold change vs agonist alone; higher = enhanced IRF activity. The note with it: agonist: MPLA (TLR4) […]. Summed up:
(§1)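 Library stock was pin-tooled at 50 nL into 384-well plates of RAW-Dual macrophages (50,000 cells/well, DMEM), followed 1 h later by a PRR agonist, and the cells were kept at 37 °C, 5% CO2. Supernatant collected after 20 hours was read for IRF by QuantiLuc luminescence and for NF-κB by QuantiBlue absorbance at 620 nm. Reporter activity is fold change over agonist-alone wells, and a well counted as cytotoxic when its IncuCyte confluency was below 70% of agonist controls in both mask sets.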

Assay [2] deals with RAW-Dual. Briefly: IRF Lucia reporter activity, fold change vs agonist alone; cytotoxicity flag (confluency mask): not cytotoxic; higher = enhanced IRF activity. Summed up:
as §1

For assay [3], the system named is RAW-Dual. Briefly: IRF Lucia reporter activity, fold change vs agonist alone; cytotoxicity flag (confluency mask): cytotoxic (confluency <70% of control); higher = enhanced IRF activity. Summed up: as §1
The mark [4] stands for this setting: library stock concentration (final ~1000-fold dilution): 10 mM, cytotoxicity flag (confluency mask): not cytotoxic.
[5] abbreviates: agonist: 3'3'-cGAMP (STING) 10 ug/mL.
Setting [6] is: library stock concentration (final ~1000-fold dilution): 10 mM water, cytotoxicity flag (confluency mask): not cytotoxic.

± gives the standard deviation of the averaged measurements. Whole data set: some 2,900 compounds, median “IRF Lucia reporter activity, fold change vs agonist alone” near 0.9, cut for the highest 2% near 2.8. The list shows a part of the results.

As for `Cc1c(S(=O)(=O)O)oc2c1C(=O)C(=O)c1c-2ccc2c1CCCC2(C)C`, in the assay with RAW-Dual [1] (setting [4]), the “IRF Lucia reporter activity” value came to 1.04. As to `Cc1c(S(=O)(=O)O)oc2c1C(=O)C(=O)c1c-2ccc2c1CCCC2(C)C` (library stock concentration (final ~1000-fold dilution): 10 mM), the “IRF Lucia reporter activity” value in the assay with RAW-Dual [2] (setting [5]) amounted to 0.96; in the assay on RAW-Dual [2] (agonist: LPS (TLR4) 0.1 ug/mL), 1.14. As to `Cl.NCCCCC(N)C(=O)O` (stereo not drawn), the “IRF Lucia reporter activity” value in the assay with RAW-Dual [1] (setting [6]) was found to be 1.4. Take `Cl.NCCCCC(N)C(=O)O` (stereo not drawn) (library stock concentration (final ~1000-fold dilution): 10 mM water): the figures for the “IRF Lucia reporter activity” value with RAW-Dual [2] (setting [5]) and in the assay on RAW-Dual [2] (agonist: LPS (TLR4) 0.1 ug/mL) were 1.41 and 0.888, respectively.

For the compound `CN(C)CCCSC(=N)N.Cl.Cl` (library stock concentration (final ~1000-fold dilution): 10 mM), the figures for the “IRF Lucia reporter activity” value in the assay with RAW-Dual [2] (setting [5]) and in the assay on RAW-Dual [2] (agonist: LPS (TLR4) 0.1 ug/mL) were 1.13 and 0.819, respectively. `CN(C)CCCSC(=N)N.Cl.Cl`: in the assay with RAW-Dual [1] (setting [4]), the “IRF Lucia reporter activity” value was 1.12. Take `CN1c2ccccc2C(=O)N2CCc3c([nH]c4ccccc34)C21` (stereo not drawn) (library stock concentration (final ~1000-fold dilution): 10 mM): the “IRF Lucia reporter activity” value with RAW-Dual [2] (setting [5]) was 0.723; with RAW-Dual [2] (agonist: LPS (TLR4) 0.1 ug/mL) it was 0.813. `CN1c2ccccc2C(=O)N2CCc3c([nH]c4ccccc34)C21` (stereo not drawn): the “IRF Lucia reporter activity” value in the assay on RAW-Dual [1] (setting [4]) was determined as 0.845. For `Fc1ccc(Nc2nc(Nc3ccc(-c4nc5ccccc5[nH]4)cc3)nc(N3CCOCC3)n2)cc1` (library stock concentration (final ~1000-fold dilution): 10 mM), the “IRF Lucia reporter activity” value is 0.0258 in the assay on RAW-Dual [3] (setting [5]) and 0.0727 with RAW-Dual [3] (agonist: LPS (TLR4) 0.1 ug/mL). As to `CC#CCn1c(N2CCCC(N)C2)nc2c1c(=O)n(Cc1nc(C)c3ccccc3n1)c(=O)n2C` (stereo not drawn) (library stock concentration (final ~1000-fold dilution): 10 mM), the “IRF Lucia reporter activity” value in the assay with RAW-Dual [2] (setting [5]) and in the assay on RAW-Dual [2] (agonist: LPS (TLR4) 0.1 ug/mL) was 1.06 each time. As to `CC#CCn1c(N2CCCC(N)C2)nc2c1c(=O)n(Cc1nc(C)c3ccccc3n1)c(=O)n2C` (stereo not drawn), the “IRF Lucia reporter activity” value in the assay on RAW-Dual [1] (setting [4]) amounted to 0.994.

With `COc1cc(/C=C/C(=O)O)cc(OC)c1O` (library stock concentration (final ~1000-fold dilution): 10 mM), the “IRF Lucia reporter activity” value was 0.912 with RAW-Dual [2] (setting [5]) and 1.1 in the assay on RAW-Dual [2] (agonist: LPS (TLR4) 0.1 ug/mL).

With `O=C(O)/C(Cc1ccccc1[N+](=O)[O-])=N/Nc1nc(-c2ccc(Cl)c(Cl)c2)cs1`, the “IRF Lucia reporter activity” value in the assay with RAW-Dual [1] (setting [4]) was determined as 0.95. Turning to `O=C(O)/C(Cc1ccccc1[N+](=O)[O-])=N/Nc1nc(-c2ccc(Cl)c(Cl)c2)cs1` (library stock concentration (final ~1000-fold dilution): 10 mM), the “IRF Lucia reporter activity” value with RAW-Dual [2] (setting [5]) came out at 0.74; with RAW-Dual [2] (agonist: LPS (TLR4) 0.1 ug/mL), 0.785. `Nc1ccc(C(=O)O)c(O)c1`: the “IRF Lucia reporter activity” value in the assay on RAW-Dual [1] (setting [4]) came out at 1.119 ± 0.011. With `Nc1ccc(C(=O)O)c(O)c1` (library stock concentration (final ~1000-fold dilution): 10 mM), the “IRF Lucia reporter activity” value in the assay with RAW-Dual [2] (setting [5]) came out at 1.05 ± 0.015; in the assay with RAW-Dual [2] (agonist: LPS (TLR4) 0.1 ug/mL), 1.16 ± 0.12. For `CC(C)n1c(=O)n(C)c2cnc3cc(F)c(-c4ccc(OCCCN5CCCCC5)nc4)cc3c21` (library stock concentration (final ~1000-fold dilution): 10 mM) the same measures were 0.432 and 0.587. For `CCOc1nc2cccc(C(=O)O)c2n1Cc1ccc(-c2ccccc2-c2nn[nH]n2)cc1`, the “IRF Lucia reporter activity” value in the assay on RAW-Dual [1] (setting [4]) turned out to be 1. Turning to `CCOc1nc2cccc(C(=O)O)c2n1Cc1ccc(-c2ccccc2-c2nn[nH]n2)cc1` (library stock concentration (final ~1000-fold dilution): 10 mM), the “IRF Lucia reporter activity” value in the assay with RAW-Dual [2] (setting [5]) was found to be 1.09; with RAW-Dual [2] (agonist: LPS (TLR4) 0.1 ug/mL) it was 0.934. As for `COc1cc(CCc2cc(NC(=O)c3ccc(N4CC(C)NC(C)C4)cc3)n[nH]2)cc(OC)c1` (stereo not drawn) (library stock concentration (final ~1000-fold dilution): 10 mM), the “IRF Lucia reporter activity” value worked out at 0.108 in the assay on RAW-Dual [3] (setting [5]) and 0.319 in the assay on RAW-Dual [3] (agonist: LPS (TLR4) 0.1 ug/mL). In the case of `COc1cc(CCc2cc(NC(=O)c3ccc(N4CC(C)NC(C)C4)cc3)n[nH]2)cc(OC)c1` (stereo not drawn), the “IRF Lucia reporter activity” value in the assay on RAW-Dual [1] (library stock concentration (final ~1000-fold dilution): 10 mM, cytotoxicity flag (confluency mask): cytotoxic (confluency <70% of control)) came out at 0.69.

As to `CCCc1cc2c(N3CCN(C4=NCC(C)(C)S4)CC3)ncnc2s1` (library stock concentration (final ~1000-fold dilution): 10 mM), the entries for the “IRF Lucia reporter activity” value in the assay with RAW-Dual [2] (setting [5]) and in the assay on RAW-Dual [2] (agonist: LPS (TLR4) 0.1 ug/mL) were 1.18 and 1.04, respectively. For `CNCc1ccc(C)c(NC(=O)c2ccc(Nc3nc(-c4ccccc4)c4ccccc4n3)cc2)c1` (library stock concentration (final ~1000-fold dilution): 10 mM) the same measures were 0.995 and 1.04.

For the compound `CNCc1ccc(C)c(NC(=O)c2ccc(Nc3nc(-c4ccccc4)c4ccccc4n3)cc2)c1`, the “IRF Lucia reporter activity” value in the assay on RAW-Dual [1] (setting [4]) amounted to 1.01.

Take `COc1cc2nc(N3CCN(C(=O)C4CCCO4)CC3)nc(N)c2cc1OC.Cl.O.O` (stereo not drawn): the “IRF Lucia reporter activity” value with RAW-Dual [1] (setting [4]) was found to be 0.867. Take `COc1cc2nc(N3CCN(C(=O)C4CCCO4)CC3)nc(N)c2cc1OC.Cl.O.O` (stereo not drawn) (library stock concentration (final ~1000-fold dilution): 10 mM): the “IRF Lucia reporter activity” value in the assay with RAW-Dual [2] (setting [5]) worked out at 1.11; with RAW-Dual [2] (agonist: LPS (TLR4) 0.1 ug/mL), 0.802.

Consider `c1ccc(-c2nn3c(c2-c2ccnc4cc(OCCN5CCOCC5)ccc24)CCC3)nc1` (library stock concentration (final ~1000-fold dilution): 2 mM), for which the results for the “IRF Lucia reporter activity” value with RAW-Dual [2] (setting [5]) and in the assay on RAW-Dual [2] (agonist: LPS (TLR4) 0.1 ug/mL) were 0.779 and 0.781, respectively. For the compound `c1ccc(-c2nn3c(c2-c2ccnc4cc(OCCN5CCOCC5)ccc24)CCC3)nc1`, in the assay on RAW-Dual [1] (library stock concentration (final ~1000-fold dilution): 2 mM, cytotoxicity flag (confluency mask): not cytotoxic), the “IRF Lucia reporter activity” value came out at 1.57. `O=C(Nc1cccc(Br)c1)c1cccc(S(=O)(=O)N2CCCCCC2)c1` (library stock concentration (final ~1000-fold dilution): 10 mM): the entries for the “IRF Lucia reporter activity” value in the assay on RAW-Dual [2] (setting [5]) and in the assay with RAW-Dual [2] (agonist: LPS (TLR4) 0.1 ug/mL) were 0.151 and 1.27, respectively. As to `O=C(Nc1cccc(Br)c1)c1cccc(S(=O)(=O)N2CCCCCC2)c1`, the “IRF Lucia reporter activity” value with RAW-Dual [1] (setting [4]) was 1.09. Take `O=C(O)Cn1nnc(-c2cc(N3CCC(Oc4cc(F)ccc4Br)CC3)no2)n1` (library stock concentration (final ~1000-fold dilution): 10 mM): the “IRF Lucia reporter activity” value came out at 0.908 in the assay with RAW-Dual [2] (setting [5]) and 1.05 in the assay with RAW-Dual [2] (agonist: LPS (TLR4) 0.1 ug/mL). With `O=C(O)Cn1nnc(-c2cc(N3CCC(Oc4cc(F)ccc4Br)CC3)no2)n1`, the “IRF Lucia reporter activity” value in the assay on RAW-Dual [1] (setting [4]) came out at 0.911.

For the compound `CNCCCC1c2ccccc2C=Cc2ccccc21.Cl` (library stock concentration (final ~1000-fold dilution): 10 mM), the “IRF Lucia reporter activity” value came out at 0.217 in the assay on RAW-Dual [3] (setting [5]) and 1.38 with RAW-Dual [3] (agonist: LPS (TLR4) 0.1 ug/mL).

As for `CCCc1nn(C)c2c(=O)[nH]c(-c3cc(S(=O)(=O)N4CCN(C)CC4)ccc3OCC)nc12` (library stock concentration (final ~1000-fold dilution): 10 mM water), the results for the “IRF Lucia reporter activity” value in the assay on RAW-Dual [2] (setting [5]) and in the assay with RAW-Dual [2] (agonist: LPS (TLR4) 0.1 ug/mL) were 1.12 and 0.887, respectively. For `CCCc1nn(C)c2c(=O)[nH]c(-c3cc(S(=O)(=O)N4CCN(C)CC4)ccc3OCC)nc12`, the “IRF Lucia reporter activity” value in the assay with RAW-Dual [1] (setting [6]) stood at 1.11. Consider `CC(OC1OCCN(Cc2nn(P(=O)(O)O)c(=O)[nH]2)C1c1ccc(F)cc1)c1cc(C(F)(F)F)cc(C(F)(F)F)c1.CNCC(O)C(O)C(O)C(O)CO.CNCC(O)C(O)C(O)C(O)CO` (stereo not drawn) (library stock concentration (final ~1000-fold dilution): 10 mM), for which the entries for the “IRF Lucia reporter activity” value in the assay with RAW-Dual [2] (setting [5]) and in the assay with RAW-Dual [2] (agonist: LPS (TLR4) 0.1 ug/mL) were 1.41 and 0.997, respectively. In the case of `CC(OC1OCCN(Cc2nn(P(=O)(O)O)c(=O)[nH]2)C1c1ccc(F)cc1)c1cc(C(F)(F)F)cc(C(F)(F)F)c1.CNCC(O)C(O)C(O)C(O)CO.CNCC(O)C(O)C(O)C(O)CO` (stereo not drawn), the “IRF Lucia reporter activity” value in the assay on RAW-Dual [1] (setting [4]) worked out at 0.972.
